Measurements as given in the RNAGym collection of RNA variant scans (doi:10.1073/pnas.2313332121).
This sample is rich in variants without activity.

B1: TPR 5TU (parent)
chain: GGAUCUUCUCGAUCUAACAAAAAAGACAAAUCUGCCACAAAGCUUGAGAGCAUCUUCGGAUGCAGAGGCGGCAGCCUUCGGUGGCGCGAUAGCGCCAACGUUCUCAACUAUGACACGCAAAACGCGUGCUCCGUUGAAUGGAGUUUAUCAUG

Variants of: B1
Experiment: polymerase ribozyme fitness, log enrichment relative to wild type (log ratio); higher = more active; in vitro selection for triplet polymerase activity
Procedure, shortened: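 After PCR construction and transcription, each subunit's mutant library from a heterodimeric triplet polymerase ribozyme was annealed with a biotinylated primer, the partner subunit and triplets. Incubation was frozen, at −7 °C, and extended constructs were gel-excised, bound to streptavidin beads and amplified by RT-PCR, in one selection round done in triplicate. Fitness is the logarithm of a genotype's enrichment divided by that of the wild type, from inverse-variance-weighted replicate averages of Illumina-sequenced inputs and outputs. The base of the logarithm is 2, and genotypes needed ≥10 input reads and ≥1 read per output.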

Variant | polymerase ribozyme fitness (log ratio)
C38U C87A | ≤ -4.2
A39G A40G U45G U53A G92A | ≤ -4.2
C36U G71A A73G C85U | ≤ -4.2
A39G U61A G70C C108U U146G U148C | ≤ -4.2
A37G U45C G46C A60C C118G C125A G143C | ≤ -4.2
A39U A41G C54A G80A G94C A98G U139G G152A | ≤ -4.2
A37C C54A G86U G112C U135C A147C U151A | ≤ -4.2
A39G A40C C79U A97U G100U A138C U144G | ≤ -4.2
A39U A107G U144G | ≤ -4.2
C35U G46A G48A G71U G86U C96U A98C U139A | ≤ -4.2
C35U A64C | ≤ -4.2
C35G G86U A122G G136A U139A U144A | ≤ -4.2
C38U U56A G65A U78A C87U C95U | ≤ -4.2
C35U G62A C99U | ≤ -4.2
A37C A49U C63G A66G G88U | ≤ -4.2
C35U U53A U61A G68U | ≤ -4.2
C36G G92A C114U A120U G124A | ≤ -4.2
C35G G50A A106C U109C | ≤ -4.2
A40C C75G C85U C87A A89G C99A G141C G143A U146G | ≤ -4.2
C35U C69U C108A A113U | ≤ -4.2
C35U G58C C63U C93G C116G | ≤ -4.2

Variant | polymerase ribozyme fitness (log ratio)
A40C C85A C108U G126A | ≤ -4.2
A39C C76G C93U A142C C149U | ≤ -4.2
C38G U53A A91U C95G A110C A121G U135C A137U | ≤ -4.2
A39C C54G A97G C114G | ≤ -4.2
C38U C95U C105A G128C | ≤ -4.2
A39G A40U A41C G48A C95U C131G U148A | ≤ -4.2
C36U U44A G46C C57A C87U | ≤ -4.2
C38U G68C A89U C108G C118A C125U G136C A150U | ≤ -4.2
C36U U44C C76G C85A G112C C114U A120C G133C | ≤ -4.2
A39C A66C A73C C85G G86C C95A | ≤ -4.2
A40C C75U C87G A106C C123A U146G U148G | ≤ -4.2
C38U A66G C93A | ≤ -4.2
C36U C43U C57A G68A | ≤ -4.2
A40C G74U G84U A120G A122G | ≤ -4.2
A39U G68C C79G G86U C114U A147C | ≤ -4.2
A40C G59U A64C G71A | ≤ -4.2
C36A G92U C103U G136U | ≤ -4.2
C36G U61G C95G A138G | ≤ -4.2
C38G U82C C95G G140C A142G | ≤ -4.2
C35G U56A G68U G92U U148G | ≤ -4.2
C38A A39C A41C G65C C75U U109G | ≤ -4.2

Variant | polymerase ribozyme fitness (log ratio)
A39U A52C C57G G70A C93U C99G A115G U134G | ≤ -4.2
C35U G80U C93A U111C | ≤ -4.2
A37C G58C G70C C85G C149A | ≤ -4.2
C36U G48U G74A U90G C93A | ≤ -4.2
C36G G94U A142G | ≤ -4.2
A37U C79G C108U G141C | ≤ -4.2
C36U G84A A107G | ≤ -4.2
A39G U55A G74C U82C G92A U102G C105G U151G | ≤ -4.2
A37C U45G G65C G140A U148G | ≤ -4.2
A39G U55A G67U G80C C85U C87A G126A U139G | ≤ -4.2
C35U G74A G94C C114U A115U | ≤ -4.2
C36G G50A A66U G88U G94U C116G C149G | ≤ -4.2
C36A C76A A119U | ≤ -4.2
A39U A89G U127C U144A A150G | ≤ -4.2
A37C A52G C63U G86A A138U U145A | ≤ -4.2
C36U C85U U102G C108U G136C | ≤ -4.2
C38A A47U G67U | ≤ -4.2
A39U U45G G136C A137U | ≤ -4.2
A37G G42A C99U G133U U135G U144A | ≤ -4.2
C38A C87U C129U G141U | ≤ -4.2
C38U U44A A52C C96G | ≤ -4.2

Variant | polymerase ribozyme fitness (log ratio)
C36A C114A | ≤ -4.2
A40C C87G A147U | ≤ -4.2
C35U G94A A107G C125G | ≤ -4.2
A39G C43U C93G C103U | ≤ -4.2
A39G U82G A91C C118U U145C | ≤ -4.2
A37C A49C C87A C103G C105U U146A | ≤ -4.2
A37C G59A G92A C93A | ≤ -4.2
C38U A41C A52G U53C G67C C96G C131G G152C | ≤ -4.2
C38G A49C C54U G67C C75U C87A C99G U146C | ≤ -4.2
A39U G59C G71C A91G A115U A120U G141A | ≤ -4.2
C36A U56A G59U G67A G83A C85A G100C A107G C108U U111G | ≤ -4.2
A37C A49G C93A G133U | ≤ -4.2
A39G G50C C75G G124A | ≤ -4.2
A37U G42C G86C A113C U135A | ≤ -4.2
C36U U55G G83A C93G C108A | ≤ -4.2
A40C C57U C69A C85U C95U C125U G140A U146A | ≤ -4.2
C38A C85A C131G U134A C149A U151G | ≤ -4.2
C36U C57A C69A G117U G140A A150G | ≤ -4.2
A39U A73U C76G G86A G140U | ≤ -4.2
A37C C85G C95A U130G | ≤ -4.2
